# According to PubChem BioAssay AID624417 (National Center for Advancing Translational Sciences (NCATS), 2012):
# The campaign covered roughly 410,000 compounds. About 6,400 (1.6%) were called active. Inconclusive means that the source gave no clear call. Such entries were picked first, then a sample of the others. The call rests on the fitted dose curve; in most records, active means well fitted inhibition curve with a large enough effect; inconclusive means small, poorly fitted or top-dose-only effect; inactive means no such curve, though single readings can be large or run the other way. Potencies of inconclusive entries are left out as doubtful fits.
# Target: Glucagon-like peptide 1 receptor (Homo sapiens) (UniProt P43220)
# UniProt P43220, sequence (P43220 whole entry, looked up): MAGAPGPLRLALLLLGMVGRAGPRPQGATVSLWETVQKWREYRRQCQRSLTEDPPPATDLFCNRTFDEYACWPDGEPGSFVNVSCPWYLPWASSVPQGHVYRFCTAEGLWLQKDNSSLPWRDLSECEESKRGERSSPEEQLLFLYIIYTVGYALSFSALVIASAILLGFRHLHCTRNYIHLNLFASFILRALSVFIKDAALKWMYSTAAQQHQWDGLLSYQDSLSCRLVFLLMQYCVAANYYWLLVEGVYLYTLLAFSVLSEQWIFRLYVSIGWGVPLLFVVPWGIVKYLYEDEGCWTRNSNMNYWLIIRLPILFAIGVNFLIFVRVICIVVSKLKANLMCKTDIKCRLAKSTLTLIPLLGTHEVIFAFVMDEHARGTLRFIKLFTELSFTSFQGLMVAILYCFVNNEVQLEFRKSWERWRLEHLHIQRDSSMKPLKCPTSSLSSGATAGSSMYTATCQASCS
# Assay: qHTS of GLP-1 Receptor Inverse Agonists (Inhibition Mode); further: nearly all actives have a fitted effect of over 55% in size
# Conditions: HEK293 GLP-1R CRE-luciferase, luminescence, 24 h, GLP-1R form is constitutively active; activity change, negative = inhibition: at 38.3 µM (top of the series) unless noted
# Outline: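 HEK293 cells stably co-expressing constitutively active GLP-1R and a cAMP-responsive luciferase reporter were seeded in DMEM with 10% Nu serum, given compounds after 12 h, and incubated 24 h at 37 deg C. Luminescence was then read.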
# On the % scale 0 is the no-effect control and ±100 the full control effect; potency means the concentration at half of the fitted maximal effect; tags describe the fitted curve by direction and shape.
SMILES,Potency,"activity change, negative = inhibition"
CN(C(=O)CN1C(=O)C2C3CC(C(Br)C3Br)C2C1=O)C1CCCCC1 (stereo not drawn),"inconclusive [inhibitor, single point]",–
CCOC(=O)[C@]12CCC=C1N(Cc1ccccc1)C(=O)[C@H](CC(=O)NCC1CCCCC1)C2,"inconclusive [inhibitor, single point]",–
OC[C@H]1O[C@@H](c2nc(-c3ccc(CN4CCOCC4)cc3)no2)[C@H](O)[C@@H](O)[C@H]1O,–,inactive: -0.108%
CCCCN1CCc2c(c3ccccc3n2Cc2ccccc2)C1,"inconclusive [inhibitor, single point]",–
Cc1ccc(-n2c(SCC(=O)Nc3ccc4c(c3)OCCO4)nc3c([nH]c4ccccc43)c2=O)cc1,–,inactive: 1.97%
Cc1cccc(NS(=O)(=O)c2nnc(NC(=O)c3cccc(C)c3)s2)c1,"inconclusive [inhibitor, partial curve, poor fit]",–
CCCCCC(=O)O/N=C(\C)c1ccn(S(=O)(=O)c2ccccc2)c1,–,inactive: -1.99%
COC(=O)c1sc2ccccc2c1NC(=O)c1ccc(S(=O)(=O)N2CCCCC2C)cc1 (stereo not drawn),"inconclusive [inhibitor, partial curve, poor fit]",–
CN(CCc1ccccc1)C(CCc1ccccc1)C(=O)Nc1ccc2c(c1)OCCO2 (stereo not drawn),"inconclusive [inhibitor, single point]",–
C=CCN(CC=C)CC(O)Cn1c2ccccc2c2ccccc21 (stereo not drawn),"inconclusive [inhibitor, single point]",–
COC(=O)c1ccccc1NC(=O)NC1CCC(C)CC1 (stereo not drawn),"inconclusive [inhibitor, single point]",–
CCOc1cc(CNCCO)cc(Br)c1OCc1ccc(Cl)cc1Cl,"inconclusive [inhibitor, partial curve, poor fit]",–
Cc1cccc(OCC(O)CN2CCc3ccccc3C2)c1 (stereo not drawn),–,inactive: 5.2%
Cc1oc(-c2cccc(Cl)c2)nc1CSCC(=O)NCc1ccccc1Cl,"inconclusive [inhibitor, single point]",–
Cc1ccc2oc(=O)n(Cc3ccc(F)cc3)c2c1,–,inconclusive: -67.4% [inhibitor]
COC(=O)c1ccc(CSc2nnc(NC(=O)C3CC(=O)N(c4ccc5c(c4)OCCO5)C3)s2)cc1 (stereo not drawn),"inconclusive [inhibitor, single point]",–
CCCCN(C)c1c(C)nc2ccc(C(=O)NCc3ccc4c(c3)OCO4)cn12,"inconclusive [inhibitor, single point]",–
Cc1ccccc1OCc1nc2ccccc2[nH]1,"inconclusive [inhibitor, single point]",–
